{"source": "the supplement of paper PMC4604168 (melanoma cell lines)", "note": "The other results are listed elsewhere or left out. Many values rest on one well or one pass, so single values are uncertain.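 Also: cells treated in 1,536-well plates, then fixed and DAPI-stained, with nuclei counted from automated high-throughput microscope images.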"}
{"tested_on": "A101D", "assay": "cell count relative to DMSO control; melanoma cells; higher = more viable cells", "conditions": "library dose: standard library concentration; 72 h", "units": {"cell count": "%"}}
{"smiles": "COc1cc2ncnc(Nc3ccc(Oc4ccccc4)cc3)c2cc1OC", "note": "+ C/C(O)=C(\\C#N)C(=O)Nc1cc(Br)ccc1Br [LFM-A13] (first compound 10 µM, partner dose 10 µM)", "cell count": 81.1}
{"smiles": "CC(C)C[C@H](NC(=O)[C@H](Cc1ccccc1)NC(=O)c1cnccn1)B(O)O", "note": "[Bortezomib] + C/C(O)=C(\\C#N)C(=O)Nc1cc(Br)ccc1Br [LFM-A13] (first compound 0.005 µM, partner dose 10 µM)", "cell count": 15.8}
{"smiles": "Cc1cc([N+](=O)[O-])ccc1NS(=O)(=O)c1cc(Cl)ccc1Cl", "note": "+ O=C(Oc1ccc([N+](=O)[O-])cc1)N1CCC(C(O)(c2ccc3c(c2)OCO3)c2ccc3c(c2)OCO3)CC1 [JZL184] (first compound 5 µM, partner dose 5 µM)", "cell count": 82.3}
{"smiles": "C[C@@H]1CCN(C(=O)CC#N)C[C@@H]1N(C)c1ncnc2[nH]ccc12", "note": "+ Cc1cc(SCc2sc(-c3ccc(C(F)(F)F)c(F)c3)nc2C)ccc1OCC(=O)O [GW0742] (first compound 5 µM, partner dose 10 µM)", "cell count": 99.9}
{"smiles": "O=C(O)C(=O)Nc1sc2c(c1C(=O)O)CCNC2", "note": "+ O=C(Oc1ccc([N+](=O)[O-])cc1)N1CCC(C(O)(c2ccc3c(c2)OCO3)c2ccc3c(c2)OCO3)CC1 [JZL184] (first compound 8.33333 µM, partner dose 5 µM)", "cell count": 82.6}
{"smiles": "Cn1c(Nc2ccc(C(F)(F)F)cc2)nc2cc(Oc3ccnc(-c4ncc(C(F)(F)F)[nH]4)c3)ccc21", "note": "+ Cc1cc(SCc2sc(-c3ccc(C(F)(F)F)c(F)c3)nc2C)ccc1OCC(=O)O [GW0742] (first compound 0.4 µM, partner dose 10 µM)", "cell count": 63.9}
{"smiles": "Cc1nc(Nc2ncc(C(=O)Nc3c(C)cccc3Cl)s2)cc(N2CCN(CCO)CC2)n1", "note": "[dasatanib] + Cc1cc(SCc2sc(-c3ccc(C(F)(F)F)c(F)c3)nc2C)ccc1OCC(=O)O [GW0742] (first compound 0.02 µM, partner dose 10 µM)", "cell count": 75.8}
{"smiles": "Oc1cc(-c2nc(-c3ccccc3)[nH]c2-c2ccncc2)ccc1Cl", "note": "+ O=C(Oc1ccc([N+](=O)[O-])cc1)N1CCC(C(O)(c2ccc3c(c2)OCO3)c2ccc3c(c2)OCO3)CC1 [JZL184] (first compound 1 µM, partner dose 5 µM)", "cell count": 61.5}
{"smiles": "O=C(O)C(=O)Nc1sc2c(c1C(=O)O)CCNC2", "note": "+ C/C(O)=C(\\C#N)C(=O)Nc1cc(Br)ccc1Br [LFM-A13] (first compound 8.33333 µM, partner dose 10 µM)", "cell count": 103}
{"smiles": "O=C(O)c1ccc2c(c1)nc(Nc1cccc(Cl)c1)c1ccncc12", "note": "+ Cc1cc(SCc2sc(-c3ccc(C(F)(F)F)c(F)c3)nc2C)ccc1OCC(=O)O [GW0742] (first compound 2 µM, partner dose 10 µM)", "cell count": 73.4}
{"smiles": "COCC[n+]1c2c(n(Cc3cnccn3)c1C)C(=O)c1ccccc1C2=O", "note": "+ C/C(O)=C(\\C#N)C(=O)Nc1cc(Br)ccc1Br [LFM-A13] (first compound 0.002 µM, partner dose 10 µM)", "cell count": 79.7}
{"smiles": "CN1CCN(c2ccc3nc(-c4c(N)c5c(F)cccc5[nH]c4=O)[nH]c3c2)CC1", "note": "[Dovitinib] + O=C(Oc1ccc([N+](=O)[O-])cc1)N1CCC(C(O)(c2ccc3c(c2)OCO3)c2ccc3c(c2)OCO3)CC1 [JZL184] (first compound 0.5 µM, partner dose 5 µM)", "cell count": 69.1}
{"smiles": "Nc1ccn([C@@H]2O[C@H](CO)[C@@H](O)C2(F)F)c(=O)n1", "note": "[gemcitabine] + C/C(O)=C(\\C#N)C(=O)Nc1cc(Br)ccc1Br [LFM-A13] (first compound 0.002 µM, partner dose 10 µM)", "cell count": 79.7}
{"smiles": "C#Cc1cccc(Nc2ncnc3cc(OCCOC)c(OCCOC)cc23)c1", "note": "[erlotinib] + C/C(O)=C(\\C#N)C(=O)Nc1cc(Br)ccc1Br [LFM-A13] (first compound 4 µM, partner dose 10 µM)", "cell count": 68.6}
{"smiles": "Cc1nc(Nc2ncc(C(=O)Nc3c(C)cccc3Cl)s2)cc(N2CCN(CCO)CC2)n1", "note": "[dasatanib] + C/C(O)=C(\\C#N)C(=O)Nc1cc(Br)ccc1Br [LFM-A13] (first compound 0.02 µM, partner dose 10 µM)", "cell count": 68.8}
